Results published in the supplement of paper PMC12217912.
This is one part of the list. The full chains were built here from the parent and the listed change. Values near 0.05 are background.

B1: TEV protease; numbered along this chain (parent)
chain: MGESLFKGPRDYNPISSSICHLTNESDGHTTSLYGIGFGPFIITNKHLFRRNNGTLVVQSLHGVFKVKDTTTLQQHLVDGRDMIIIRMPKDFPPFPQKLKFREPQREERICLVTTNFQTKSMSSMVSDTSCTFPSGDGIFWKHWIQTKDGQCGSPLVSTRDGFIVGIHSASNFTNTNNYFTSVPKNFMELLTNQEAQQWVSGWRLNADSVLWGGHKVFMVKPEEPFQPVKEATQL

Variants of: B1
Test: raw area under fraction-flipped curve 0-4 h after induction (AUC4h, not background-subtracted), DNA-recorder readout of cleavage of the substrate (dimensionless); higher = more cleavage of the substrate by the protease variant
Settings: temperature: 34 °C; time window: 0-4 h after rhamnose induction
Description: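 In vivo DNA recorder in E. coli TOP10(DE3) ΔrhaA at 34 °C. Each TEVp single-site mutant (parent TEVp 0) is paired with a single-site variant of the 7-mer TEVs (canonical ENLYFQ|S). The substrate sits between flexible linkers in a Bxb1-sfGFP-TEVs-SsrA fusion, so cleavage stabilises Bxb1 and speeds flipping of a recombination array, read by NGS. The value is the raw area under the fraction-flipped curve over 0-4 h after rhamnose induction (AUC4h), with ≥20 reads per time point. It is not background-subtracted; inactive controls average about 0.047.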
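Also: Bxb1 expression induced with 0.2% (w/v) L-rhamnose at OD600 near 0.5, cultures sampled hourly, flipped fraction per protease–substrate barcode pair counted by paired-end Illumina sequencing.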

Variant	area with substrate ENAYFQS	area with substrate ENCYFQS	area with substrate ENEYFQS	area with substrate ENFYFQS	area with substrate ENGYFQS	area with substrate ENKYFQS	area with substrate ENNYFQS	area with substrate ENQYFQS	area with substrate ENTYFQS	area with substrate ENVYFQS	area with substrate ENHYFQS	area with substrate ENMYFQS	area with substrate ENPYFQS	area with substrate ENSYFQS	area with substrate ENWYFQS	area with substrate ENDYFQS	area with substrate ENIYFQS	area with substrate ENRYFQS	area with substrate ENYYFQS
MGESLFKGPRDYNPISSSICHLTNESDGHTTSLYGIGFGPFIITNKHLFRRNNGTLVVQSLHGVFKVKDTTTLQQHLVDGRDMIIIRMPKDFPPFPQKLKFREPQREERICLVTTNFQTKSMSSMVSDTMCTFPSGDGIFWKHWIQTKDGQCGSPLVSTRDGFIVGIHSASNFTNTNNYFTSVPKNFMELLTNQEAQQWVSGWRLNADSVLWGGHKVFMVKPEEPFQPVKEATQL [S130M]	0.08	0.0677	0.0602	0.0651	0.0344	0.0658	0.0869	0.0654	0.0649	0.0755									
MGESLFKGPRDYNPISSSICHLTNESDGHTTSLYGIGFGPFIITNKHLFRRNNGTLVVQSLHGVFKVKDTTTLQQHLVDGRDMIIIRMPKDFPPFPQKLKFREPQREERICLVTTNFQTKSMSSMVSDTKCTFPSGDGIFWKHWIQTKDGQCGSPLVSTRDGFIVGIHSASNFTNTNNYFTSVPKNFMELLTNQEAQQWVSGWRLNADSVLWGGHKVFMVKPEEPFQPVKEATQL [S130K]	0.0631	0.056	0.058	0.0568	0.0471	0.0667	0.0785	0.0605	0.0608		0.054	0.108	0.0534	0.0546	0.0566				
MGESLFKGPRDYNPISSSICHLTNESDGHTTSLYGIGFGPFIITNKHLFRRNNGTLVVQSLHGVFKVKDTTTLQQHLVDGRDMIIIRMPKDFPPFPQKLKFREPQREERICLVTTNFQTKSMSSMVSDTHCTFPSGDGIFWKHWIQTKDGQCGSPLVSTRDGFIVGIHSASNFTNTNNYFTSVPKNFMELLTNQEAQQWVSGWRLNADSVLWGGHKVFMVKPEEPFQPVKEATQL [S130H]	0.0499		0.06		0.0758	0.0559		0.0436	0.0424				0.0627	0.0708	0.0346	0.0621	0.105	0.0565	
MGESLFKGPRDYNPISSSICHLTNESDGHTTSLYGIGFGPFIITNKHLFRRNNGTLVVQSLHGVFKVKDTTTLQQHLVDGRDMIIIRMPKDFPPFPQKLKFREPQREERICLVTTNFQTKSMSSMVSDTSCTFNSGDGIFWKHWIQTKDGQCGSPLVSTRDGFIVGIHSASNFTNTNNYFTSVPKNFMELLTNQEAQQWVSGWRLNADSVLWGGHKVFMVKPEEPFQPVKEATQL [P134N]	0.0551	0.0434		0.0915		0.0516		0.0612	0.0619	0.0692			0.0765	0.0652				0.0024	0.0594
MGESLFKGPRDYNPISSSICHLTNESDGHTTSLYGIGFGPFIITNKHLFRRNNGTLVVQSLHGVFKVKDTTTLQQHLVDGRDMIIIRMPKDFPPFPQKLKFREPQREERICLVTTNFQTKSMSSMVSDTSCTFVSGDGIFWKHWIQTKDGQCGSPLVSTRDGFIVGIHSASNFTNTNNYFTSVPKNFMELLTNQEAQQWVSGWRLNADSVLWGGHKVFMVKPEEPFQPVKEATQL [P134V]	0.052	0.0639	0.0583	0.059		0.0553	0.0718	0.0627	0.0627	0.0615	0.0564			0.0501		0.0618	0.0879		0.0558
MGESLFKGPRDYNPISSSICHLTNESDGHTTSLYGIGFGPFIITNKHLFRRNNGTLVVQSLHGVFKVKDTTTLQQHLVDGRDMIIIRMPKDFPPFPQKLKFREPQREERICLVTTNFQTKSMSSMVSDGSCTFPSGDGIFWKHWIQTKDGQCGSPLVSTRDGFIVGIHSASNFTNTNNYFTSVPKNFMELLTNQEAQQWVSGWRLNADSVLWGGHKVFMVKPEEPFQPVKEATQL [T129G]	0.0677		0.0593		0.0633			0.0631	0.0616				0.0533						
MGESLFKGPRDYNPISSSICHLTNESDGHTTSLYGIGFGPFIITNKHLFRRNNGTLVVQSLHGVFKVKDTTTLQQHLVDGRDMIIIRMPKDFPPFPQKLKFREPQREERICLVTTNFQTKSMSSMVSDNSCTFPSGDGIFWKHWIQTKDGQCGSPLVSTRDGFIVGIHSASNFTNTNNYFTSVPKNFMELLTNQEAQQWVSGWRLNADSVLWGGHKVFMVKPEEPFQPVKEATQL [T129N]	0.0475	0.0783		0.077	0.0682	0.0641	0.0589	0.0571		0.0686	0.0695	0.0727		0.0337		0.0617	0.123	0.0618	
MGESLFKGPRDYNPISSSICHLTNESDGHTTSLYGIGFGPFIITNKHLFRRNNGTLVVQSLHGVFKVKDTTTLQQHLVDGRDMIIIRMPKDFPPFPQKLKFREPQREERICLVTTNFQTKSMSSQVSDTSCTFPSGDGIFWKHWIQTKDGQCGSPLVSTRDGFIVGIHSASNFTNTNNYFTSVPKNFMELLTNQEAQQWVSGWRLNADSVLWGGHKVFMVKPEEPFQPVKEATQL [M125Q]	0.0566	0.0741	0.0628	0.0606	0.0405	0.0656	0.0532	0.063	0.0696	0.101		0.0943	0.0612	0.0754	0.004			0.0479	0.0668
MGESLFKGPRDYNPISSSICHLTNESDGHTTSLYGIGFGPFIITNKHLFRRNNGTLVVQSLHGVFKVKDTTTLQQHLVDGRDMIIIRMPKDFPPFPQKLKFREPQREERICLVTTNFQTKSMSSPVSDTSCTFPSGDGIFWKHWIQTKDGQCGSPLVSTRDGFIVGIHSASNFTNTNNYFTSVPKNFMELLTNQEAQQWVSGWRLNADSVLWGGHKVFMVKPEEPFQPVKEATQL [M125P]	0.0389	0.082	0.065		0.0688		0.0657	0.0441		0.0801		0.0763	0.0497	0.0526		0.0534			
